Assay results as given in the RNAGym collection of RNA variant scans (doi:10.1093/nar/gkz1192).
The source gives no read counts; variants with many changes may rest on few reads.

B1: CPEB3 Ribozyme (parent)
chain: UAACAGGGGGCCACAGCAGAAGCGUUCACGUCGCAGCCCCUGUCAGAUUCUGGUGAAUCUGCGAAUUCUGCUGUAUAUCUC

Variants of: B1
Experiment: self-cleavage, relative activity (ratio to wild type); higher = more cleavage; in vitro, sequencing
Summary of the method: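 After error-prone PCR and barcoding, CPEB3 ribozyme mutant libraries were transcribed with T7 RNA polymerase at 37°C for 5 hours, then given 15 min with DNase I before an EDTA stop, and they cleaved during both steps. Reverse transcription with template switching preceded Illumina sequencing. Relative activity divides a variant's cleaved/total read fraction by the unmutated ribozyme's. At least 5 reads were required per variant, and three batches were averaged.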

Question: For U51C G52A U78A, which self-cleavage is on record?
Answer: 1.12

Question: Which self-cleavage does the source give for U72C A75G U78A here?
Answer: 1.3

Question: Which self-cleavage does the source give for A64G U67A U72C here?
Answer: 0.34

Question: Which self-cleavage does the source give for U51C U60A U69A here?
Answer: 0.41

Question: Which self-cleavage does the source give for U51G A77U U80C here?
Answer: 1.15

Question: For A57G U72A A75G, which self-cleavage is on record?
Answer: 1.08

Question: For A56C U72A C81U, which self-cleavage is on record?
Answer: 0.45

Question: Which self-cleavage does the source give for C50U U76C U80C here?
Answer: 1.13

Question: For A56G U74G A75U, which self-cleavage is on record?
Answer: 1.13

Question: With C50U G52A U76C as the variant, how does the self-cleavage read?
Answer: 0.75

Question: Which self-cleavage does the source give for U54C U60C A65U U69C U72A here?
Answer: 0.24

Question: With U54C A64G U74C as the variant, how does the self-cleavage read?
Answer: 1.13

Question: With U49C U60C U69C U72C U80A as the variant, how does the self-cleavage read?
Answer: 0.05

Question: Which self-cleavage does the source give for A57G U60C A65G here?
Answer: 0.15

Question: For U60C G61U U76C, which self-cleavage is on record?
Answer: 0.25

Question: For A56U U69C U80A, which self-cleavage is on record?
Answer: 0.45

Question: With A57G U67C U69C as the variant, how does the self-cleavage read?
Answer: 0.23

Question: Which self-cleavage does the source give for A65G U72A A75G here?
Answer: 0.57

Question: With U54C U60A U67C A77U as the variant, how does the self-cleavage read?
Answer: 0.41

Question: With U58C A77U U80C as the variant, how does the self-cleavage read?
Answer: 0.64

Question: With A56G U72A U80A as the variant, how does the self-cleavage read?
Answer: 1.26

Question: Which self-cleavage does the source give for A64G C79G U80C here?
Answer: 1.01

Question: For U51C U74C A77G, which self-cleavage is on record?
Answer: 1.38

Question: With A56G A65G U67C C68A U74C as the variant, how does the self-cleavage read?
Answer: 0.34

Question: For U51A A56G U69C, which self-cleavage is on record?
Answer: 0.28

Question: For U54C A65G C81A, which self-cleavage is on record?
Answer: 0.52

Question: With G53C A57G A65G U72A U74C as the variant, how does the self-cleavage read?
Answer: 0.2

Question: With U51A G70A A77G as the variant, how does the self-cleavage read?
Answer: 0.74

Question: With A57G U69C U76C as the variant, how does the self-cleavage read?
Answer: 0.74

Question: With C59U U60C A65G U78C as the variant, how does the self-cleavage read?
Answer: 0.14

Question: For A64G U67A U72A U78A, which self-cleavage is on record?
Answer: 0.23

Question: For U58C A64G U69C, which self-cleavage is on record?
Answer: 0.42

Question: For A56G U69C U78A, which self-cleavage is on record?
Answer: 0.63

Question: For U49C U60C U80G, which self-cleavage is on record?
Answer: 0.11

Question: With A56G U60G U69C as the variant, how does the self-cleavage read?
Answer: 0.27

Question: Which self-cleavage does the source give for A57G U58A U78A here?
Answer: 0.15

Question: With U51G U69C U76C as the variant, how does the self-cleavage read?
Answer: 0.6

Question: With C50G A56G U74C as the variant, how does the self-cleavage read?
Answer: 1.1

Question: For U54A U60A A64G U67C, which self-cleavage is on record?
Answer: 0.42

Question: Which self-cleavage does the source give for A57U G63U U76A here?
Answer: 0.81

Question: For U54G A56G U60C, which self-cleavage is on record?
Answer: 0.25

Question: With U51A A57G C79U as the variant, how does the self-cleavage read?
Answer: 0.8

Question: Which self-cleavage does the source give for U51C G52A A65G here?
Answer: 0.63

Question: For U66C U67A A75U, which self-cleavage is on record?
Answer: 0.16

Question: For U51C G52C U67C U72C, which self-cleavage is on record?
Answer: 0.64

Question: For A64U C79A U80A, which self-cleavage is on record?
Answer: 0.38

Question: For G55A U69C U80C, which self-cleavage is on record?
Answer: 0.3

Question: For U54C A56U C71U, which self-cleavage is on record?
Answer: 0.22

Question: With U72G U78C C79U as the variant, how does the self-cleavage read?
Answer: 0.96

Question: Which self-cleavage does the source give for U69C U72C U78C U80G here?
Answer: 0.34

Question: With U49C U60C U72C C81A as the variant, how does the self-cleavage read?
Answer: 0.2

Question: With U58C U72C C79U as the variant, how does the self-cleavage read?
Answer: 1.13

Question: For A56G U67A U80A, which self-cleavage is on record?
Answer: 0.74

Question: Which self-cleavage does the source give for U51A G55U U60A U69A G73C A77G here?
Answer: 0.64

Question: With G52U U54G A65G as the variant, how does the self-cleavage read?
Answer: 0.39

Question: For U54C U74A C79A, which self-cleavage is on record?
Answer: 1.29

Question: For A56G A57G C62U A64U U74C C79A, which self-cleavage is on record?
Answer: 0.14

Question: For C62U U67C U76A, which self-cleavage is on record?
Answer: 0.33

Question: Which self-cleavage does the source give for U51A A56G U80G here?
Answer: 0.84

Question: With U66A A77U U78A as the variant, how does the self-cleavage read?
Answer: 0.67

Question: With U58C G73A A77G as the variant, how does the self-cleavage read?
Answer: 1.25

Question: Which self-cleavage does the source give for A57C A64U U76C A77U here?
Answer: 0.05

Question: Which self-cleavage does the source give for A57G U60A A65G C79U here?
Answer: 0.34

Question: Which self-cleavage does the source give for G63A A75G C81A here?
Answer: 0.66

Question: For A57G U66C U74C U78C, which self-cleavage is on record?
Answer: 0.33

Question: With A56G U72C U80C as the variant, how does the self-cleavage read?
Answer: 1.13

Question: For G61U C79U U80A, which self-cleavage is on record?
Answer: 0.98

Question: For A56G A75G U78C, which self-cleavage is on record?
Answer: 0.52

Question: For C50U U60C U72A, which self-cleavage is on record?
Answer: 0.15

Question: With G55U U67C U72C U80C as the variant, how does the self-cleavage read?
Answer: 0.21
